ChEMBL document CHEMBL4888484, “Replenishing the malaria drug discovery pipeline: Screening and hit evaluation of the MMV Hit Generation Library 1 (HGL1) against asexual blood stage Plasmodium falciparum ,using a nano luciferase reporter read-out” (2022)
The whole screen tested about 150,000 compounds, of which about 540 (0.36%) showed an effect of 50% or more. Some of the results follow.

System: Plasmodium falciparum
Assay: Primary screen in NF54 nanoGlo assay, in single point, at 2uM, 72h; a lower Z score goes with more inhibition
Format: functional, Erythrocyte
Conditions: timepoint 72 hour

Structure (SMILES) | % Inhibition | Z score
O=C(c1ccco1)N1CCN(c2nccn3nc4c(c23)CCCC4)CC1 | -11% | 1.4
O=C(NC1CCCC1)C1CC2CCC1C2 (stereo not drawn) | 11% | -1.06
CC(C)Cn1cncc1CN1CCOC2(CCCC2)C1 | -15% | 1.61
O=C(NC1CCCCC1)c1c(OCC2CC2)cc(=O)n2c1CCOCC2 | -12% | 1.42
O=C(O)c1cc(NS(=O)(=O)c2cccc(F)c2)ccc1N1CCCCCC1 | -9% | 0.84
CN(Cc1ccc2nsnc2c1)C(=O)CCC(=O)Nc1nncs1 | -15% | 1.48
Cc1nc(-c2ccc(Cl)c(S(=O)(=O)N3CCC[C@H](C(=O)NC4CCC(C)CC4)C3)c2)no1 (stereo partly drawn) | -12% | 1.56
CC[C@H](Nc1cncc(-n2ccnc2C)n1)c1cccs1 | -5% | 0.48
Cc1cnc(C(=O)N2CCC(CCn3c(C)cnc3C3CCC3)CC2)cn1 | -9% | 1.17
O=C1N[C@H]2C[C@@H](C(=O)NC[C@@H]3CCC[C@@H](CCOc4ccccc41)O3)N(Cc1ccc(F)cc1)C2 | -4% | 0.6
CCCNc1ncc(CN2C[C@H](CO)[C@H](CN3C[C@@H](C)O[C@@H](C)C3)C2)cn1 | -12% | 1.25
CN(CCCC1(C#N)CCOCC1)Cc1cc(F)cc(F)c1 | 8% | -0.84
Cc1nc(C)c(Cn2cnc3ccccc3c2=O)s1 | 1% | -0.1
O=C(NC1CC1)[C@@H]1CCCN1c1ncc(C(F)(F)F)s1 | 0% | 0.07
N#Cc1cccc(C(=O)N2CCCN([C@H]3CCOC3)CC2)c1 | -17% | 2.83
COc1cc(Cl)c(C)cc1NC(=O)CC(C)(C)CC(=O)O | -3% | 0.4
Cc1ncsc1C(=O)NCc1ccc(N2CCCCC2)nc1 | 3% | -0.42
Cc1cccc(OC2CCN(C(=O)c3c[nH]c(C)cc3=O)CC2)c1 | -9% | 1.35
CC(C)c1cc(C(C)C)c(S(=O)(=O)Nc2ccc(NS(=O)(=O)c3c(C(C)C)cc(C(C)C)cc3C(C)C)cc2)c(C(C)C)c1 | -1% | 0.08
NC(=O)CNS(=O)(=O)[C@H]1C[C@@H]1c1ccccc1 | -3% | 0.37
CN1CCC(N(CCc2ccccc2)C(=O)c2ccon2)CC1 | 14% | -1.97

Structure (SMILES) | % Inhibition | Z score
CCN(C(=O)c1ccnc(-c2ccccc2)c1N)c1nc(C)cs1 | -1% | 0.22
O=C(Nc1nnc(-c2ccc(Br)cc2)s1)[C@@H]1CCCN1C(=O)Nc1ccccc1Br | -7% | 1.46
CC(C)[C@H](CNC1=NS(=O)(=O)c2ccccc21)N1CCc2ccccc2C1 | -2% | 0.33
CC(C)(NCC(=O)N[C@H]1CCCCNC1=O)c1nccs1 | -4% | 0.55
O=C([C@@H]1Cc2ccccc21)N1CCN(c2cccc(Cl)c2)CC1 | 13% | -1.59
COC(=O)[C@@H]1N[C@H](c2ccccc2C)[C@@H]2C(=O)N(c3ccccc3)C(=O)[C@@H]21 | -2% | 0.38
O=C(O)CN1CCCC[C@H](N2CCC(CCc3ccc(F)cc3F)CC2)C1=O | -10% | 1.05
CCc1cccc(NC(=O)Cn2cc(-c3nc(C)no3)ccc2=O)c1 | -4% | 0.66
CN(Cc1c(F)cccc1F)CC1CCCC1O (stereo not drawn) | -4% | 0.66
Cc1cc(=O)[nH]c(=O)n1-c1ccc2c(c1)OCO2 | -11% | 1.81
CCCN1CCN(c2ncc3c(n2)CCN(Cc2ccc(OC)c(OC)c2)C3)CC1 | 1% | -0.21
Cc1noc(CNC(=O)c2cncc(Br)c2)n1 | -8% | 1.23
Cc1ccn(Cc2nc3ccccc3s2)c(=O)c1C#N | -7% | 0.66
N=C(NCc1ccccc1)NS(=O)(=O)c1ccccc1 | -7% | 0.96
CCCCn1cnc2c(-c3ccccc3)cn(CC(=O)N3CCN(c4ccc(F)cc4)CC3)c2c1=O | 0% | 0.04
CNC(=NCCc1ccc(Cl)s1)NC | -8% | 1.06
c1ccc(COCc2cn([C@H]3CCN(Cc4c[nH]c5ccccc45)C3)nn2)cc1 | 3% | -0.5
COc1ccc(N[C@@H](C)C(=O)Nc2nc(C)cs2)c(OC)c1 | 36% | -4.86
COCCn1cc(NC(=O)N2CC(C)C2c2ccccc2)cn1 (stereo not drawn) | 3% | -0.3
Cc1cccc(CCN2C(=O)OC(C)(C)C2=O)n1 | 3% | -0.42
O=C1CCC(N2CC[C@@H]3CCCC[C@H]3C2)CCN1Cc1ccc2ccccc2c1 (stereo partly drawn) | -7% | 1.3

Structure (SMILES) | % Inhibition | Z score
Fc1ccc2c(c1)C(N1CCC3(CCOC3)C1)CC2 (stereo not drawn) | 4% | -0.61
CCNc1ncc(C(=O)N2Cc3ccccc3C2)cn1 | -5% | 0.46
CN(C)C(=O)CN1C[C@@H](S(N)(=O)=O)Cc2ccccc21 | -15% | 1.86
O=C(CCC1CCN(C(=O)c2csc3c2CCCC3)CC1)N1CCc2ccccc2C1 | 5% | -0.91
CC(C)Cn1cccc(C(=O)N2CCN(c3ncns3)CC2)c1=O | -4% | 0.89
CC[C@H](C)C(=O)C(=O)N1CCn2cncc2C1 | -2% | 0.39
Cc1cnc(CN(C)[C@@H](c2ccc(F)cc2)c2ncccn2)o1 | -14% | 1.83
CCNC(=O)N1CC[C@H](Oc2cccnc2N(C)C)C1 | -9% | 1.03
COc1ccc(-c2cnn(-c3ccccn3)c2)cc1COC1CCC1 | 2% | -0.32
O=C(c1ccnc(/C=C/c2ccccc2)c1)N1CCOCC1 | -17% | 2.58
CN(Cc1n[nH]c2c1CCCCC2)c1cc(C2CC(N)C2)nc(N)n1 (stereo not drawn) | 5% | -0.64
C=Cc1ccc(CN2C(=O)[C@H]3CCCC3=Nc3cc(C)c(C)cc32)cc1 | -12% | 2.22
COc1cc2c(cc1OC)[C@H](c1ccccc1Cl)N(C(=O)c1cccc3cc[nH]c13)CC2 | 7% | -0.81
C[C@@H]1N(c2ncccc2C(F)(F)F)CCC12CCOCC2 | -5% | 0.64
CCN=C(NCc1c(C)noc1C)NCC1CCOC1C(C)(C)C (stereo not drawn) | -16% | 1.69
CC[C@@H](CN=C(N)N(C)C)Oc1cccc(F)c1 | -2% | 0.27
C=CCN(C(=O)c1cc[nH]n1)c1nc2c(s1)CCCC2 | -2% | 0.24
Cc1cc(C)nc(NCCC(=O)NCCc2c[nH]c3ccc(F)cc23)n1 | -6% | 0.89
O=C(CN1CCN(Cc2ccccc2)CC1)Nc1nccs1 | -7% | 0.86
CCNC(=NCCOCc1ccccc1)NCC | -3% | 0.4
CCOc1cccc(S(=O)(=O)N(C)[C@@]2(C#N)CCOC2)c1 | -2% | 0.22

Structure (SMILES) | % Inhibition | Z score
CCCC(CCC)C(=O)N1CCC2(CC1)N[C@H](C(=O)N1CCCC1)Cc1[nH]cnc12 | -6% | 0.92
C[C@@H]1CC(=O)N[C@H](C(=O)N2CCC(O)(C(F)F)CC2)C1 | 1% | -0.15
Cc1ccc(C)c(CN(Cc2ccccc2)Cc2nc(C(=O)NCc3cccnc3)co2)c1 | -3% | 0.26
CCn1cc(CC(=O)NC2CCCCCC2)c2cccnc21 | -4% | 0.49
CN(C)[C@H]1CCCN(C(=O)CCc2cccs2)CC1 | -5% | 0.64
CCOc1ccccc1NC(=O)[C@H]1CCc2nc(N3CCOCC3)ncc2C1 | -10% | 1.86
CC(C)OC(=O)N(CCOC(=O)Nc1cccc(Cl)c1)CCOC(=O)Nc1cccc(Cl)c1 | 34% | -4.33
Cc1nc(-c2ccc3c(c2)n(CC(=O)Nc2ccc4c(c2)OCO4)c(=O)n3C(C)C)no1 | -7% | 0.81
CCn1c(N2CCC(C(=O)N3CCN(c4cccc(Cl)c4)CC3)CC2)cc(=O)n(C)c1=O | -10% | 1.51
CCN1c2cc(C)ccc2-n2cccc2C12CCN(C(=O)Nc1ccc(C)cc1Cl)CC2 | 8% | -1.09
CCCS(=O)(=O)c1c(S(=O)(=O)CCC)c2cc(-c3ccncc3)ccn2c1C(=O)c1ccc(OC)cc1 | -7% | 0.61
Cc1cccc(CN2CCC[C@@]3(CCN(C(=O)CCOc4ccccc4)C3)C2)c1 | 3% | -0.52
CC(C)n1nccc1C(=O)Nc1nnnn1C | -11% | 2.06
C[C@@H](CC(=O)Nc1ccc2c(c1)OCCO2)n1cccn1 | -8% | 1.56
Cc1ccc(Cc2ccccc2C(=O)N[C@@H]2C[C@@H](CO)N(C)C2)cc1F | 0% | 0.06
CCCCCNC(=O)NC1(CCO)CCOCC1 | -12% | 1.32
COCCc1nnc(NC(=O)c2ccc(F)c(F)c2)o1 | -1% | 0.13
NS(=O)(=O)c1ccc(CNCCC(=O)Nc2nccs2)cc1 | -11% | 1.06
O=C1NCCC[C@@H]1NS(=O)(=O)c1cncc(Br)c1 | -7% | 0.85
Cc1ccc2c(Nc3ccc(F)c(Cl)c3)c(C(=O)N3CCCCCC3)cnc2n1 | -11% | 1.8
COc1c(C)cc(C(=O)N[C@@H]2c3ccccc3C3(CCNCC3)[C@H]2O)cc1C | -8% | 1.7
